From PMC4242493 come the findings set out here.

This is one part of the list. The list includes weakly bound sequences.

The assay addresses MaxL homodimer (UniProt P61244). Briefly: universal protein-binding microarray (PBM). Conditions: PBS-based mixture, 10 nM His-tagged protein dimer, 2% milk, 200 ng/uL BSA, 50 ng/uL salmon testes DNA, 0.02% TX-100; detection with Alexa 488 anti-His …; high values mean tight binding; most listed sequences are background and not binding sites; double strand, one strand shown.
UniProt P61244, sequence (P61244 whole entry): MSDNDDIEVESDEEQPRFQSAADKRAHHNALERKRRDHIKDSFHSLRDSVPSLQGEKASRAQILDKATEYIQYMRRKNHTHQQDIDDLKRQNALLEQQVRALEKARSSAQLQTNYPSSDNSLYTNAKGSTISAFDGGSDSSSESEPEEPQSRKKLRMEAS
Take GCTAATGA: the binding signal (normalized occupancy) was 0.0804.

On to ACTAAGAC, for which the binding signal (normalized occupancy) is 0.0733.

On to CCCCTCTA, for which the binding signal (normalized occupancy) was found to be 0.0742.

In the case of AAATAAGC, the binding signal (normalized occupancy) amounted to 0.0745.

Regarding GATGAGAC, the binding signal (normalized occupancy) is 0.0717.

Consider AACAAGGC, for which the binding signal (normalized occupancy) stood at 0.0748.

In the case of AAATTATG, the binding signal (normalized occupancy) turned out to be 0.0799.

For TCGGCACA, the binding signal (normalized occupancy) turned out to be 0.0774.

Turning to ACGGAAGC, the binding signal (normalized occupancy) came out at 0.0733.

Take AAAGCGTT: the binding signal (normalized occupancy) is 0.0746.

Consider CCTCTCCC, for which the binding signal (normalized occupancy) amounted to 0.0727.

On to CTTGACAC, for which the binding signal (normalized occupancy) is 0.0776.

For the sequence ATCAACTG, the binding signal (normalized occupancy) is 0.0748.

Turning to AGCCTCGC, the binding signal (normalized occupancy) was determined as 0.0797.

As for AATAGAGG, the binding signal (normalized occupancy) was determined as 0.0706.

Take GGTTCGAC: the binding signal (normalized occupancy) turned out to be 0.0712.

Consider CAGTTTGG, for which the binding signal (normalized occupancy) is 0.0706.

With CGGAATTA, the binding signal (normalized occupancy) came out at 0.0751.

Regarding GATGTATA, the binding signal (normalized occupancy) was 0.0841.

Consider TAACCCGA, for which the binding signal (normalized occupancy) amounted to 0.0768.

Consider CGGCTGAG, for which the binding signal (normalized occupancy) was determined as 0.0683.

ACAATGGC: the binding signal (normalized occupancy) turned out to be 0.0783.

Turning to GAAGGGAC, the binding signal (normalized occupancy) was determined as 0.0676.

For GTCTGGAA, the binding signal (normalized occupancy) stood at 0.0804.

In the case of GTAATAAC, the binding signal (normalized occupancy) was found to be 0.0828.

Turning to ACTACTGA, the binding signal (normalized occupancy) is 0.0721.

As to GGGTAGGA, the binding signal (normalized occupancy) came to 0.0738.

As for ACCCCGGT, the binding signal (normalized occupancy) stood at 0.0743.

As to ACTGCCGG, the binding signal (normalized occupancy) was found to be 0.0684.

As for GGATGAGA, the binding signal (normalized occupancy) was determined as 0.0761.

On to AAGCATCA, for which the binding signal (normalized occupancy) is 0.076.

As to GCATGACC, the binding signal (normalized occupancy) turned out to be 0.0988.

With ACTGTGCA, the binding signal (normalized occupancy) was 0.0781.

Turning to CTAGCCCA, the binding signal (normalized occupancy) was found to be 0.0746.

Take CCGTTTTC: the binding signal (normalized occupancy) was found to be 0.0725.

Consider CAGAAATC, for which the binding signal (normalized occupancy) came to 0.0751.

As to CTCGAGCA, the binding signal (normalized occupancy) came out at 0.0781.

With GCACGGAA, the binding signal (normalized occupancy) worked out at 0.0719.

As for CCGGTTGC, the binding signal (normalized occupancy) amounted to 0.069.

As to TCTAACCA, the binding signal (normalized occupancy) turned out to be 0.0757.

On to TCGTACAA, for which the binding signal (normalized occupancy) was 0.0785.

For the sequence GCTATCGA, the binding signal (normalized occupancy) was found to be 0.075.

As to ACCCCAAC, the binding signal (normalized occupancy) amounted to 0.0781.

Turning to AACCCTTC, the binding signal (normalized occupancy) was found to be 0.0746.

As to CCAGAATA, the binding signal (normalized occupancy) amounted to 0.0786.

With GCTGCGAA, the binding signal (normalized occupancy) came out at 0.0718.

On to AAGGAGGG, for which the binding signal (normalized occupancy) is 0.0766.

With AGGAGTGC, the binding signal (normalized occupancy) amounted to 0.0739.

Consider GACGGATC, for which the binding signal (normalized occupancy) came out at 0.0692.

As to GAAAATGC, the binding signal (normalized occupancy) worked out at 0.076.

As for ATTCCAGA, the binding signal (normalized occupancy) worked out at 0.0779.

As to CACAACAC, the binding signal (normalized occupancy) came to 0.0821.

As for GGTGGGAC, the binding signal (normalized occupancy) was 0.0719.

TCCTTGAA: the binding signal (normalized occupancy) is 0.0749.

As to AGATGTGG, the binding signal (normalized occupancy) came out at 0.0868.

As to ACAATGCG, the binding signal (normalized occupancy) came out at 0.0867.

Turning to AGTTGGAT, the binding signal (normalized occupancy) came to 0.0766.

For ATATGGAC, the binding signal (normalized occupancy) is 0.0892.

For ACCGCACT, the binding signal (normalized occupancy) worked out at 0.0707.

Turning to GATGCATC, the binding signal (normalized occupancy) stood at 0.0787.

With CAGGATCC, the binding signal (normalized occupancy) was determined as 0.0718.

For the sequence ACTTCCGG, the binding signal (normalized occupancy) came to 0.0682.

For the sequence GGCCAGGA, the binding signal (normalized occupancy) turned out to be 0.0696.

Take CAAAGATG: the binding signal (normalized occupancy) worked out at 0.0737.

As for AACAAGCA, the binding signal (normalized occupancy) amounted to 0.0744.

With GAATATAA, the binding signal (normalized occupancy) came to 0.0791.

For ACCCGCTA, the binding signal (normalized occupancy) was found to be 0.0692.

For CTTGGACC, the binding signal (normalized occupancy) is 0.0707.

On to GCCTTTCA, for which the binding signal (normalized occupancy) is 0.0716.

In the case of ATTCAACC, the binding signal (normalized occupancy) was determined as 0.0752.

As to ACCGGTAT, the binding signal (normalized occupancy) amounted to 0.0748.

For the sequence AGATAATA, the binding signal (normalized occupancy) was found to be 0.0791.

Regarding CGTAGTAC, the binding signal (normalized occupancy) was 0.0733.

Regarding AGTAACTC, the binding signal (normalized occupancy) stood at 0.0742.

As for CAAGTAGA, the binding signal (normalized occupancy) came out at 0.0752.

As to GCACGTCC, the binding signal (normalized occupancy) is 0.0788.

Regarding GAAATGGA, the binding signal (normalized occupancy) is 0.0742.

In the case of GTTATATA, the binding signal (normalized occupancy) was found to be 0.0878.

Take ACGGCCGT: the binding signal (normalized occupancy) worked out at 0.0644.

On to GGTACACA, for which the binding signal (normalized occupancy) is 0.0779.

On to CATGCCAA, for which the binding signal (normalized occupancy) was found to be 0.0927.

For AGCTCATG, the binding signal (normalized occupancy) stood at 0.0881.

Take ACGGTCAT: the binding signal (normalized occupancy) turned out to be 0.0787.

AAGAATGA: the binding signal (normalized occupancy) was found to be 0.0754.

For CTGATGCC, the binding signal (normalized occupancy) was 0.0717.

Take ACATTACT: the binding signal (normalized occupancy) was 0.0821.

Take CATACTAC: the binding signal (normalized occupancy) amounted to 0.0805.

Regarding AGCCTGCA, the binding signal (normalized occupancy) was found to be 0.0704.

With CTATCGAC, the binding signal (normalized occupancy) came to 0.0767.

In the case of CCAAAGAA, the binding signal (normalized occupancy) stood at 0.071.

As to AAATGCAC, the binding signal (normalized occupancy) was 0.0827.

Turning to ATAGTTCG, the binding signal (normalized occupancy) stood at 0.0764.

In the case of CCGCAGAC, the binding signal (normalized occupancy) was determined as 0.0709.

On to CCCTGGCG, for which the binding signal (normalized occupancy) is 0.0693.

AACCCGAG: the binding signal (normalized occupancy) came out at 0.0727.

On to CACATCTC, for which the binding signal (normalized occupancy) is 0.0861.

In the case of CAGTGCAC, the binding signal (normalized occupancy) was 0.0755.

Take ATGAGACA: the binding signal (normalized occupancy) was found to be 0.0828.

As for CTCTCGAC, the binding signal (normalized occupancy) was determined as 0.0727.

As for GGCGAGGA, the binding signal (normalized occupancy) stood at 0.0746.

Regarding GAACGGGA, the binding signal (normalized occupancy) was 0.0721.

In the case of CGGAGGTC, the binding signal (normalized occupancy) stood at 0.0744.

As to ATGTACAT, the binding signal (normalized occupancy) stood at 0.0891.

On to CCTCGGAC, for which the binding signal (normalized occupancy) was found to be 0.0725.

Take CGGAGCGA: the binding signal (normalized occupancy) worked out at 0.0623.

Regarding AAGCGCCT, the binding signal (normalized occupancy) worked out at 0.073.

Regarding AATTCGGA, the binding signal (normalized occupancy) was 0.0724.

Take ATTAAAAC: the binding signal (normalized occupancy) was found to be 0.0783.

As for AAAGGACA, the binding signal (normalized occupancy) came to 0.0747.
